About 120 (0.75%) of roughly 16,000 compounds were called active. Roughly 4% stayed inconclusive and do not appear here. The call rests on the fitted dose curve; in most records, active means well fitted inhibition curve with a large enough effect; inconclusive means small, poorly fitted or top-dose-only effect; inactive means no such curve, though single readings can be large or run the other way. This is one part of the list.
biological target: Rap guanine nucleotide exchange factor 3 (Homo sapiens) (UniProt O95398); assay: Validation qHTS for antagonist of cAMP-regulated guanine nucleotide exchange factor 3 (EPAC1); settings: EPAC1 Rap1B-BODIPY-GDP exchange, fluorescence; series mostly up to 150 µM; activity change, negative = inhibition: at the top concentration; further: nearly all actives have a fitted effect of over 75% in size;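 on activity change, negative = inhibition: plate controls were DMSO for no effect and ATA control for full effect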
Procedure, shortened: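 EPAC1 (100 nM) mixed with 250 nM RAP1B-BODIPY-GDP and 50 uM GDP; compounds in concentration series, 5 min at room temperature. Fluorescence (ex 480/em 540 nm) read every 5 min for 30 min; normalized to ATA control and DMSO.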
Potency means the concentration at half of the fitted maximal effect.

UniProt O95398, sequence (O95398 whole entry, looked up): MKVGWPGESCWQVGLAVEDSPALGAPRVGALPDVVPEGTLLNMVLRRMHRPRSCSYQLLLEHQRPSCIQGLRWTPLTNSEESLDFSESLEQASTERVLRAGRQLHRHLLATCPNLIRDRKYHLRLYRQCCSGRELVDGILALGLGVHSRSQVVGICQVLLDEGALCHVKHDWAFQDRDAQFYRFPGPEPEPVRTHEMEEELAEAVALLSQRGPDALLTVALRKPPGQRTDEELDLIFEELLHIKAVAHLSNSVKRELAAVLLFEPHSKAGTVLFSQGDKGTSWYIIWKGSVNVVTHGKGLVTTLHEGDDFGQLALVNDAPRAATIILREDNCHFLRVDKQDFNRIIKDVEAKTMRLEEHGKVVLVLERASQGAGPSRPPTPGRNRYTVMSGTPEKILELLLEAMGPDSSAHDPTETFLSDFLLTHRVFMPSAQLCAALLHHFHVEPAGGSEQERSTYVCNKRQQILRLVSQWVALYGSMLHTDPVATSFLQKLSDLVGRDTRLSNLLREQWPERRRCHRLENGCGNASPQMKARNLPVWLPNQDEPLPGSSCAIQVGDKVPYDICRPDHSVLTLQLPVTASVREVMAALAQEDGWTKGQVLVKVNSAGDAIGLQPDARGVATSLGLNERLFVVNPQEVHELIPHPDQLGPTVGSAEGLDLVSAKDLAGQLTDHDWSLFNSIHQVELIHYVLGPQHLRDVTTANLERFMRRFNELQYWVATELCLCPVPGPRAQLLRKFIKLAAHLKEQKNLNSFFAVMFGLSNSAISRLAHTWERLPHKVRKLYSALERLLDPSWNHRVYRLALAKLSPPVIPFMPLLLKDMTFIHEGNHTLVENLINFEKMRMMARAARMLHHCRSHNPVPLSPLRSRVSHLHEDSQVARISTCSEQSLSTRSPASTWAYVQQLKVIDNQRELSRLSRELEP

| SMILES | activity change, negative = inhibition | Potency |
| --- | --- | --- |
| CC1(C)Oc2ccc(C#N)cc2[C@@H](OC2=CC(=O)CC2)[C@@H]1O | inactive |  |
| Cc1ncc2c(c1CNS(=O)(=O)N(C)C)CCN(C(=O)c1[nH]c3ccc(Cl)cc3c1C)C2 | inactive: -1.31% |  |
| CC1=CC2C(CC1=O)C(C)=CCC2C(C)C (stereo not drawn) | inactive: 8.54% |  |
| Cc1csc[n+]1CC(=O)c1ccc(I)cc1 | inactive: -15.2% |  |
| CC(C)C1COc2cc3oc(=O)ccc3cc2O1 (stereo not drawn) | inactive: -1.58% |  |
| COc1ccc(C(=O)N2CCC3(CCCN(C(=O)NC(C)C)C3)CC2)cc1 | inactive: 4.72% |  |
| CN(C)c1ncc2nc(CCc3ccccc3)c(=O)n(Cc3ccc(F)cc3)c2n1 | inactive: 14.1% |  |
| Cc1cnc(CNc2ncncc2-c2ccccc2CN(C)C)cn1 | inactive: -14.9% |  |
| O=C(Cn1cncn1)N1CCOc2ccc(CN3CCN(c4ccccc4)CC3)cc2C1 | inactive: 3.64% |  |
| NC(CSCC(=O)O)C(=O)O (stereo not drawn) | inactive: -5.19% |  |
| O=C(Nc1ccc(/C=C/c2ccc(NC(=O)c3cc(S(=O)(=O)O)c4cccnc4c3O)cc2S(=O)(=O)O)c(S(=O)(=O)O)c1)c1cc(S(=O)(=O)O)c2cccnc2c1O |  | active: 44.7 µM |
| CN(C)Cc1ccccc1-c1ccc2ncnc(N(C)Cc3ccco3)c2c1 | inactive: 1.71% |  |
| COc1ccc(CNc2ncnc3ccc(-c4ccc5c(c4)OCO5)cc23)c(OC)c1 | inactive: -6.95% |  |
| CC(C)[C@@H]1CC[C@@H](C)CC1=O | inactive: 16.2% |  |
| CCOC(=O)/C=C/c1ccc2oc3ccccc3c(=O)c2c1 | inactive: 12.3% |  |
| COC(=O)[C@H](CC(C)C)N(Cc1ccccc1)S(=O)(=O)N(Cc1ccccc1)[C@@H](CC(C)C)C(=O)OC | inactive: -3.82% |  |
| O=c1c(CCc2ccccc2)nc2cncnc2n1C1CC1 | inactive: 1.27% |  |
| CC(C)C[C@H](NC(=O)[C@H](CCCCN)NC(=O)[C@H](CCCNC(=N)N)NC(=O)[C@H](C)NC(=O)[C@H](CO)NC(=O)[C@H](CCCCN)NC(=O)[C@H](CCCNC(=N)N)NC(=O)[C@H](C)NC(=O)CNC(=O)[C@@H](NC(=O)[C@H](Cc1ccccc1)NC(=O)CNC(=O)CNC(=O)[C@@H](N)Cc1ccccc1)[C@H](C)O)C(=O)N[C@@H](C)C(=O)N[C@@H](CC(N)=O)C(=O)N[C@@H](CCC(N)=O)C(=O)O | inactive: -5.17% [at 15.3 µM] |  |
| CCN(Cc1ccncc1)C(=O)[C@@H](CO)c1ccccc1 | inactive: 10.4% |  |
| CN(C)c1ncc2nc(-c3cccs3)c(=O)n(Cc3cccs3)c2n1 | inactive: 25.7% |  |
| CCN(CC)CCOC(=O)c1cccnc1 | inactive: 3.74% |  |
| Oc1cc(-c2nc3ccccc3s2)cc2c1OCCN(Cc1cccn1-c1ccccn1)C2 | inactive: -4.75% |  |

| SMILES | activity change, negative = inhibition | Potency |
| --- | --- | --- |
| CCC1(O)CC2CN(CCc3c([nH]c4ccccc34)[C@@](C(=O)OC)(c3cc4c(cc3OC)N(C=O)C3[C@]45CCN4CC=C[C@@](CC)([C@@H](OC(C)=O)[C@]3(O)C(=O)OC)[C@H]45)C2)C1 (stereo partly drawn) | inactive: -0.743% [at 75.8 µM] |  |
| Cc1c(C(=O)NCC2CCCN(C)C2)cnn1-c1ncc2c(n1)-c1ccccc1CCC2 (stereo not drawn) | inactive: 7.21% |  |
| CC(O)[C@@H]1NC(=O)[C@H](Cc2ccccc2)NC(=O)[C@H](C(C)O)NC(=O)[C@H](CCCCN)NC(=O)[C@H](Cc2c[nH]c3ccccc23)NC(=O)[C@H](Cc2ccccc2)NC(=O)[C@H](Cc2ccccc2)NC(=O)[C@H](CC(N)=O)NC(=O)[C@H](CCCCN)NC(=O)[C@@H](NC(=O)CNC(=O)[C@H](C)N)CSSC[C@@H](C(=O)O)NC(=O)[C@H](CO)NC1=O (stereo partly drawn) | inactive: 12.5% |  |
| CCCCCCCCNC(C)C(O)c1ccc(SC(C)C)cc1 (stereo not drawn) | inactive: -14.7% |  |
| O=C(c1ccncc1)N1CCC2(CCCN(c3ccncc3)C2)CC1 | inactive: -3.1% |  |
| Cc1cc2nc3c(=O)[nH]c(=O)nc-3n(C[C@H](O)[C@H](O)[C@H](O)COP(=O)(O)OP(=O)(O)OC[C@H]3O[C@@H](n4cnc5c(N)ncnc54)[C@H](O)[C@@H]3O)c2cc1C | inactive: 312% |  |
| CC(=O)CC(c1ccc([N+](=O)[O-])cc1)c1c(O)c2ccccc2oc1=O (stereo not drawn) | inactive: 9.99% [at 75.8 µM] |  |
| O=C(O)c1cc([N+](=O)[O-])ccc1NCCCc1ccccc1 | inactive |  |
| COc1ccccc1-c1cc(NCc2ccccc2)ncn1 | inactive: 11.7% |  |
| O=C(O)c1cc(NCc2cc(O)ccc2O)ccc1O | inactive: -5.76% |  |
| COc1ccc(CNc2cc(-c3ccoc3)ncn2)c(OC)c1 | inactive: 7.51% |  |
| COc1cc2c(cc1OC)[C@@H]1C(=O)c3ccc4c(c3O[C@@H]1CO2)C=CC(C)(C)O4 | inactive: -8.74% |  |
| CCOC(=O)c1ccc(N(C(=O)c2ccccc2)c2ccccc2)cc1 | inactive: -28.4% |  |
| C(=C\c1c[nH]c2ccccc12)/c1cc[n+](C2CCCCC2)cc1 | inactive: 9.19% |  |
| CCCCCN=c1ccn(Cc2ccccc2)c2ccccc12 | inactive: 11.9% |  |
| COc1ccc(CN2[C@@H](CC(=O)O)c3ccc(C(F)(F)F)cc3S2(=O)=O)cc1 | inactive: -9.27% |  |
| CCOC(=O)C1=C(N)Oc2ccc(Br)cc2[C@@H]1[C@@H](C#N)C(=O)OCC | inactive: 0.667% |  |
| Cc1nnc(SCC2=C(C(=O)O)N3C(=O)[C@@H](NC(=O)Cn4cnnn4)[C@H]3SC2)s1 | inactive |  |
| CCCCCCCCCCCCCCCCOCCOCCOCCOCCOCCOCCOCCOCCOCCOCCOCCOCCOCCOCCOCCOCCOCCOCCOCCOCCO | inactive: -18.7% |  |
| Cc1ccc(C(=O)NCCc2nnc3n2CCN(C(=O)c2ccnc(Cl)c2)CC3)cc1 | inactive: 9.7% |  |
| CN(C)c1nc(N)c(C(=O)N=C(N)N)nc1Cl | inactive: 13.7% [at 75.8 µM] |  |
| O=c1[nH]c(=O)n([C@H]2C[C@H](O)[C@@H](CO)O2)cc1C(F)(F)F | inactive: 12.7% |  |

| SMILES | activity change, negative = inhibition | Potency |
| --- | --- | --- |
| CN(C)Cc1ccccc1-c1nc(NCc2cccs2)c2ccccc2n1 | inactive: 6.79% |  |
| CC(=O)OC1CC[C@@]2(C)C(CC[C@@]3(C)C2CC=C2C4CC(C)(C)CC[C@]4(C)CC[C@@]23C)C1(C)C (stereo partly drawn) | inactive: 3.36% |  |
| Cn1cc(-c2nc3cnc(N4CCNCC4)nc3n(Cc3ccc(F)cc3)c2=O)c2ccccc21 | inactive: -16.2% |  |
| COc1ccc(CNc2ccnc(-c3cccc(C#N)c3)n2)c(OC)c1 | inactive: -18.2% |  |
| CC(C)[C@@H](N)C(=O)O | inactive: 5.27% |  |
| O=C(O[C@H]1[C@H](Cc2ccccc2)NS(=O)(=O)[C@H]2CC3C=C[C@]12O3)c1ccc(Br)cc1 | inactive: -10.1% |  |
| Cc1nn(C)c(Cl)c1CN1CCOc2ccc(CN3CCC(Oc4cccnc4)CC3)cc2C1 | inactive: 12.9% |  |
| OC[C@@H](O)COc1cccc2ccccc12 | inactive: -1.51% |  |
| Cc1noc(C)c1-c1cncnc1NC1CC1 | inactive: 19% |  |
| CCCC(=O)O[C@]1(C(=O)CO)CC[C@H]2[C@@H]3CCC4=CC(=O)CC[C@]4(C)[C@H]3[C@@H](O)C[C@@]21C | inactive: 11.6% |  |
| COc1cccc(N2[C@@H](CC(C)=O)c3ccc(/C=C/C(C)=O)cc3S2(=O)=O)c1 | inactive: 5.56% |  |
| CC1(C)[C@H](O[C@H]2O[C@H](C(=O)O)[C@@H](O)[C@H](O)[C@H]2O[C@@H]2O[C@H](C(=O)O)[C@@H](O)[C@H](O)[C@H]2O)CC[C@@]2(C)[C@H]1CC[C@]1(C)[C@H]2C(=O)C=C2[C@H]3C[C@@](C)(C(=O)O)CC[C@]3(C)CC[C@]21C | inactive: 10% |  |
| C[C@@H](N)CCCP(=O)(O)O | inactive: 31.2% |  |
| O=c1[nH]c2cc(Cl)c(Cl)cc2[nH]c1=O | inactive |  |
| COc1ccc(C(=O)N2CCC[C@@]3(CCN(CC(C)C)C3)C2)cc1 | inactive: 18.7% |  |
| N#Cc1cccc(NC(=O)N2CCCC3(CCN(C(=O)c4cccc(F)c4)CC3)C2)c1 | inactive: 8.86% |  |
| CN(Cc1ccco1)c1ncncc1-c1cccc(NS(C)(=O)=O)c1 | inactive: 5.08% |  |
| COc1ccc2nc(S(=O)Cc3ncc(C)c(OC)c3C)[nH]c2c1 (stereo not drawn) | inactive: 7.86% |  |
| Cc1nc2c(O)cccc2c(=O)[nH]1 | inactive: -7.9% |  |
| CCNc1ncc2nc(-c3ccc(F)cc3)c(=O)n(CCc3ccccc3)c2n1 | inactive: 13.1% |  |
| COc1ccc(CN2CCc3nnc(CNC(=O)c4cc(C)oc4C)n3CC2)c2ccccc12 | inactive: 2.26% |  |
| COc1cc(=O)n2c(c1C(=O)NCc1ccc3c(c1)OCO3)CCN(C(=O)c1ccccc1F)CC2 | inactive: 6.16% |  |

| SMILES | activity change, negative = inhibition | Potency |
| --- | --- | --- |
| O=S(=O)(c1ccccc1)N1CCC2(CCCN(c3ccccn3)C2)CC1 | inactive: -16% |  |
| COCCn1c(=O)c(CCc2ccccc2)nc2cnc(OCc3ccccc3)nc21 | inactive: 4.22% |  |
| COCC(=O)Nc1cc(C(=O)NC2Cc3ccccc3C2)cc2nc(-c3cccnc3)n(C)c12 | inactive: 15.6% |  |
| Cc1noc(C)c1-c1nccc(N2CCN(C)CC2)n1 | inactive: -7.22% |  |
| C=C(C)C1CC=C(C(=O)O)CC1 (stereo not drawn) | inactive |  |
| N[C@H](C(=O)O)[C@@H]1C[C@@H]1C(=O)O | inactive |  |
| O=C1[C@H](Cc2ccccc2)NCCCC[C@H](c2ccco2)N1Cc1ccccc1 | inactive: -3.91% |  |
| COc1ccc(C(=O)N2CCC3(CC2)CCN(C(c2ccccc2)c2ccccc2)CC3)cc1 | inactive: -10.8% |  |
| CN(C)CC[C@@H](c1ccc(Br)cc1)c1ccccn1 | inactive |  |
| N#Cc1ccccc1-c1ccc2ncnc(NCc3cccnc3)c2c1 | inactive: -1.83% |  |
| N#CCCn1c(=O)cnc2cnc(N3CCOCC3)nc21 | inactive: 12.9% |  |
| CCC(C)[C@@H](N)C(=O)O (stereo partly drawn) | inactive |  |
| Cc1cc(C(=O)NCc2nnc3n2CCN(Cc2ccc(F)cc2F)CC3)c(C)o1 | inactive: 12.8% |  |
| CC(=O)OCC(=O)[C@@]1(O)[C@H](OC(C)=O)C[C@H]2[C@@H]3CCC4=CC(=O)C=C[C@]4(C)[C@@]3(F)[C@@H](O)C[C@@]21C | inactive: 26% |  |
| COCC1CCCN(Cc2ccc3c(c2)CN(C(=O)c2cnn(C(C)C)c2)CCO3)C1 (stereo not drawn) | inactive: 14.9% |  |
| O=S1(=O)CCOC[C@H](CC2CCCCC2)N1Cc1ccc(F)cc1 | inactive: 4.77% |  |
| Cc1ccc2c(c1)CN(CCC(=O)NCc1cc(C)n(C)n1)CC(C)O2 (stereo not drawn) | inactive: 5.77% |  |
| Clc1cccc(Nc2nnc(-c3ccccc3)c3ccccc23)c1 | inactive |  |
| COc1ccc2c(c1)-c1nc(-n3ncc(C(=O)NCc4cccnc4)c3C3CC3)ncc1CC2 | inactive: 12.3% |  |
| CNC(=O)[C@H]1O[C@@H](n2cnc3c(NCc4ccc(I)cc4)nc(Cl)nc32)[C@H](O)[C@@H]1O | inactive: 3.45% [at 75.8 µM] |  |
| CCNc1ncc2nc(C)c(=O)n(CCc3ccccc3)c2n1 | inactive: 13.3% |  |
| N[C@H](Cn1ccc(=O)n(Cc2ccccc2C(=O)O)c1=O)C(=O)O | inactive: 7.97% |  |

From PubChem BioAssay AID1645882 (National Center for Advancing Translational Sciences (NCATS), 2021)
